Substitutions are numbered along the chain they refer to; changes in the protein carry UniProt numbers. Some of the results follow.

The values below come from PMC9911399, “Two distinct binding modes provide the RNA-binding protein RbFox with extraordinary sequence specificity”.

Sequences and labels used below:
T1: RBFOX1 RRM RbFoxmut (Fox-RRM*) (Homo sapiens, UniProt Q9NWB1 109-208, R118D;E147R;N151S;E152T)
T1 sequence: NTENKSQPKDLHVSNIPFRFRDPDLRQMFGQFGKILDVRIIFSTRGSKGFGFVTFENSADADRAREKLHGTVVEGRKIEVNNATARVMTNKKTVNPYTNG

B1: GGCACAA (DNA:RNA)
RNA: GGGAGACCGGAAUUCAGAUUGUCCGGCACAAUUAAAUCCCGUCGUAGCCACCA
DNA 1: CAATCTGAATTCCGGTCTCCC
DNA 2: TGGTGGCTACGACGGGATT
B2: CGAAGUU (DNA:RNA)
RNA: B1 RNA with G25C, C27A, C29G, A30U, A31U
DNA 1: CAATCTGAATTCCGGTCTCCC
DNA 2: TGGTGGCTACGACGGGATT
B3: AUACUCU (DNA:RNA)
RNA: GGGAGACCGGAAUUCAGAUUGUCCAUACUCUUUAAAUCCCGUCGUAGCCACCA
DNA 1: CAATCTGAATTCCGGTCTCCC
DNA 2: TGGTGGCTACGACGGGATT
B4: CAGCAGU (DNA:RNA)
RNA: B3 RNA with A25C, U26A, A27G, U29A, C30G
DNA 1: CAATCTGAATTCCGGTCTCCC
DNA 2: TGGTGGCTACGACGGGATT
B5: AGUUUAC (DNA:RNA)
RNA: B3 RNA with U26G, A27U, C28U, C30A, U31C
DNA 1: CAATCTGAATTCCGGTCTCCC
DNA 2: TGGTGGCTACGACGGGATT
B6: AUCACCC (DNA:RNA)
RNA: B3 RNA with A27C, C28A, U29C, U31C
DNA 1: CAATCTGAATTCCGGTCTCCC
DNA 2: TGGTGGCTACGACGGGATT
B7: CUGAAGC (DNA:RNA)
RNA: B3 RNA with A25C, A27G, C28A, U29A, C30G, U31C
DNA 1: CAATCTGAATTCCGGTCTCCC
DNA 2: TGGTGGCTACGACGGGATT
B8: AGUAGCC (DNA:RNA)
RNA: B3 RNA with U26G, A27U, C28A, U29G, U31C
DNA 1: CAATCTGAATTCCGGTCTCCC
DNA 2: TGGTGGCTACGACGGGATT
B9: CCUCGGU (DNA:RNA)
RNA: B3 RNA with A25C, U26C, A27U, U29G, C30G
DNA 1: CAATCTGAATTCCGGTCTCCC
DNA 2: TGGTGGCTACGACGGGATT
B10: GUCGCUA (DNA:RNA)
RNA: B1 RNA with G26U, A28G, A30U
DNA 1: CAATCTGAATTCCGGTCTCCC
DNA 2: TGGTGGCTACGACGGGATT
B11: AUGGCAU (DNA:RNA)
RNA: B3 RNA with A27G, C28G, U29C, C30A
DNA 1: CAATCTGAATTCCGGTCTCCC
DNA 2: TGGTGGCTACGACGGGATT
B12: ACAAUUU (DNA:RNA)
RNA: B3 RNA with U26C, C28A, C30U
DNA 1: CAATCTGAATTCCGGTCTCCC
DNA 2: TGGTGGCTACGACGGGATT
B13: CCGGCAU (DNA:RNA)
RNA: B1 RNA with G25C, G26C, C27G, A28G, A31U
DNA 1: CAATCTGAATTCCGGTCTCCC
DNA 2: TGGTGGCTACGACGGGATT
B14: AUUGACA (DNA:RNA)
RNA: B3 RNA with A27U, C28G, U29A, U31A
DNA 1: CAATCTGAATTCCGGTCTCCC
DNA 2: TGGTGGCTACGACGGGATT
B15: CUACGGC (DNA:RNA)
RNA: B3 RNA with A25C, U29G, C30G, U31C
DNA 1: CAATCTGAATTCCGGTCTCCC
DNA 2: TGGTGGCTACGACGGGATT
B16: GGACGAA (DNA:RNA)
RNA: B1 RNA with C27A, A28C, C29G
DNA 1: CAATCTGAATTCCGGTCTCCC
DNA 2: TGGTGGCTACGACGGGATT
B17: CAGUCUC (DNA:RNA)
RNA: B1 RNA with G25C, G26A, C27G, A28U, A30U, A31C
DNA 1: CAATCTGAATTCCGGTCTCCC
DNA 2: TGGTGGCTACGACGGGATT
B18: AGGCCUC (DNA:RNA)
RNA: B3 RNA with U26G, A27G, U29C, C30U, U31C
DNA 1: CAATCTGAATTCCGGTCTCCC
DNA 2: TGGTGGCTACGACGGGATT
B19: GCUCCUG (DNA:RNA)
RNA: B1 RNA with G26C, C27U, A28C, A30U, A31G
DNA 1: CAATCTGAATTCCGGTCTCCC
DNA 2: TGGTGGCTACGACGGGATT
B20: AGGCCAA (DNA:RNA)
RNA: B1 RNA with G25A, C27G, A28C
DNA 1: CAATCTGAATTCCGGTCTCCC
DNA 2: TGGTGGCTACGACGGGATT
B21: ACUCCAC (DNA:RNA)
RNA: B3 RNA with U26C, A27U, U29C, C30A, U31C
DNA 1: CAATCTGAATTCCGGTCTCCC
DNA 2: TGGTGGCTACGACGGGATT
B22: UUCGCAU (DNA:RNA)
RNA: B1 RNA with G25U, G26U, A28G, A31U
DNA 1: CAATCTGAATTCCGGTCTCCC
DNA 2: TGGTGGCTACGACGGGATT
B23: UGUUCAA (DNA:RNA)
RNA: B1 RNA with G25U, C27U, A28U
DNA 1: CAATCTGAATTCCGGTCTCCC
DNA 2: TGGTGGCTACGACGGGATT
B24: UUAGCCG (DNA:RNA)
RNA: B3 RNA with A25U, C28G, U29C, U31G
DNA 1: CAATCTGAATTCCGGTCTCCC
DNA 2: TGGTGGCTACGACGGGATT
B25: GAGAUAC (DNA:RNA)
RNA: B1 RNA with G26A, C27G, C29U, A31C
DNA 1: CAATCTGAATTCCGGTCTCCC
DNA 2: TGGTGGCTACGACGGGATT
B26: ACGGUCA (DNA:RNA)
RNA: B3 RNA with U26C, A27G, C28G, U31A
DNA 1: CAATCTGAATTCCGGTCTCCC
DNA 2: TGGTGGCTACGACGGGATT
B27: UCCUGGU (DNA:RNA)
RNA: B3 RNA with A25U, U26C, A27C, C28U, U29G, C30G
DNA 1: CAATCTGAATTCCGGTCTCCC
DNA 2: TGGTGGCTACGACGGGATT
B28: GACGCCA (DNA:RNA)
RNA: B1 RNA with G26A, A28G, A30C
DNA 1: CAATCTGAATTCCGGTCTCCC
DNA 2: TGGTGGCTACGACGGGATT
B29: UUCCGCG (DNA:RNA)
RNA: B3 RNA with A25U, A27C, U29G, U31G
DNA 1: CAATCTGAATTCCGGTCTCCC
DNA 2: TGGTGGCTACGACGGGATT
B30: GUACUUC (DNA:RNA)
RNA: B3 RNA with A25G, C30U, U31C
DNA 1: CAATCTGAATTCCGGTCTCCC
DNA 2: TGGTGGCTACGACGGGATT
B31: CCCCGGU (DNA:RNA)
RNA: B3 RNA with A25C, U26C, A27C, U29G, C30G
DNA 1: CAATCTGAATTCCGGTCTCCC
DNA 2: TGGTGGCTACGACGGGATT

The target in this experiment is T1, RBFOX1 RRM RbFoxmut (Fox-RRM*). Nature of the experiment: EMSA; HiTS-Eq, 1 nM pool, 10 min; buffer printed only for the single-RNA assays: 10 mM Tris pH 7.5, 150 mM NaCl, 3.4 mM EDTA, 0.001% NP-40, 30 C. The settings on record: tags: His6 N-terminal (pET28a); label: 5' 32P. An outline of the steps: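 Purified wild-type or mutant RbFox RRM at increasing concentrations was equilibrated with 1 nM of 5′-radiolabelled RNA carrying 7 randomized nucleotides for 10 min in 50 µL. Unbound RNA was separated by 8% native PAGE and sequenced. Relative association constants came from read-count changes of each RNA species compared with the control reaction, normalised to the cognate motif.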
Background: A gel shift assay detects complexes by their altered migration in electrophoresis.
Regarding B1, the binding signal is 0.0678 KA relative to UGCAUGU. For B2, the binding signal was 0.104 KA relative to UGCAUGU. For the molecule B3, the binding signal was 0.0727 KA relative to UGCAUGU. B4: the binding signal was 0.0631 KA relative to UGCAUGU. Consider B5, for which the binding signal is 0.0981 KA relative to UGCAUGU. The figure for B6 is 0.0508 KA relative to UGCAUGU. As for B7, the binding signal was 0.0885 KA relative to UGCAUGU. For the molecule B8, the binding signal is 0.124 KA relative to UGCAUGU.

In the case of B9, the binding signal is 0.111 KA relative to UGCAUGU. In the case of B10, the binding signal is 0.135 KA relative to UGCAUGU. B11: the binding signal is 0.146 KA relative to UGCAUGU. The figure for B12 is 0.0757 KA relative to UGCAUGU; for B13 it is 0.0728 KA relative to UGCAUGU; for B14 it is 0.0621 KA relative to UGCAUGU.

In the case of B15, the binding signal was 0.0631 KA relative to UGCAUGU. For B16 the value was 0.104 KA relative to UGCAUGU; for B17, 0.0665 KA relative to UGCAUGU; for B18, 0.0748 KA relative to UGCAUGU. Turning to B19, the binding signal was 0.0816 KA relative to UGCAUGU.

Regarding B20, the binding signal is 0.0811 KA relative to UGCAUGU. Regarding B21, the binding signal was 0.0681 KA relative to UGCAUGU.

As for B22, the binding signal is 0.123 KA relative to UGCAUGU. Turning to B23, the binding signal is 0.0759 KA relative to UGCAUGU. For B24 the value was 0.123 KA relative to UGCAUGU; for B25, 0.1 KA relative to UGCAUGU; for B26, 0.118 KA relative to UGCAUGU. Turning to B27, the binding signal was 0.0983 KA relative to UGCAUGU. With B28, the binding signal is 0.0655 KA relative to UGCAUGU. In the case of B29, the binding signal is 0.105 KA relative to UGCAUGU. Consider B30, for which the binding signal is 0.0694 KA relative to UGCAUGU. With B31, the binding signal was 0.0852 KA relative to UGCAUGU.
